In the BET-seq Pho4 binding data (Le et al. 2018):
Some of the results follow. The energies were worked out here from pooled read counts, against the library average; single values are noisy.

biological target: T1, Pho4 (S. cerevisiae) (UniProt P07270); assay: relative binding free energy (BET-seq); higher = weaker binding; details: reference: library average
T1 sequence: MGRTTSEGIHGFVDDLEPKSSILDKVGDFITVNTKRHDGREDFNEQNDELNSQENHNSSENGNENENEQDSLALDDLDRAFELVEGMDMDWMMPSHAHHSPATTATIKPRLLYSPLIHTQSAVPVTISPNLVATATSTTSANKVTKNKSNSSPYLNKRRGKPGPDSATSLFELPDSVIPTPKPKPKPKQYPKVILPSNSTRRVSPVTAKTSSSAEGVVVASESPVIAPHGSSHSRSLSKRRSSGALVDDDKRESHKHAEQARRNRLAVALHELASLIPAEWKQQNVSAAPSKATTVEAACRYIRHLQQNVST

| Sequence | relative binding free energy [kcal/mol] |
| --- | --- |
| TGGGGCACGTGCAATT | -0.11 |
| GGGCGCACGTGTGGAT | -0.01 |
| TGGTGCACGTGTGGCG | 0.02 |
| GCTTTCACGTGCGTGT | 0.46 |
| TTATTCACGTGTGCGG | 0.17 |
| AGGAGCACGTGATAGG | -0.09 |
| TCGGTCACGTGCCGGT | 0 |
| GGGTACACGTGCAGGG | 0.12 |
| TATTGCACGTGGTTAA | -0.1 |
| GGAAGCACGTGTTTGG | -0.08 |
| AATGACACGTGCGTAT | 0.1 |
| GAGATCACGTGATGTT | 0.39 |
| GTGTTCACGTGGTCCT | 0.15 |
| GTGTGCACGTGTTCGT | 0.1 |
| AGGGGCACGTGTAGGG | -0.06 |
| TTGAGCACGTGGATAG | 0 |
| GTCTACACGTGTTTGG | 0.24 |
| AGTTTCACGTGTATCA | 0.35 |
| GTCTGCACGTGAAGTG | 0.21 |
| TTGTTCACGTGGAAAT | 0.49 |
| TATTACACGTGAGGAT | 0.16 |
| CTTTGCACGTGAGAGG | 0.21 |
| GAGGTCACGTGGATGA | 0.18 |

| Sequence | relative binding free energy [kcal/mol] |
| --- | --- |
| ACGGGCACGTGGTCGT | -0.22 |
| ATATCCACGTGGGTAT | 0.01 |
| GTTAGCACGTGACGAG | 0.22 |
| AGGTGCACGTGGCTGC | -0.27 |
| CTTAGCACGTGAGGTG | 0.16 |
| CTAGGCACGTGAGCTG | 0.17 |
| TTGTACACGTGTCTGG | 0.14 |
| AGTGTCACGTGGATTT | 0.04 |
| AACTTCACGTGATGTT | 0.33 |
| TATTACACGTGAGGAA | 0.39 |
| AGTGACACGTGGTATC | 0 |
| CGGGACACGTGTTGTA | 0.04 |
| GTAGTCACGTGTGGAT | 0.16 |
| GGGTGCACGTGTGCAG | 0 |
| TGTCCCACGTGGGGAT | -0.05 |
| ATGCTCACGTGGTGCG | 0.05 |
| GGTGACACGTGATTTG | 0.2 |
| CTGGTCACGTGGTGTC | 0.07 |
| CTTGGCACGTGTGCTA | -0.14 |
| GTTGTCACGTGTAGGT | 0.17 |
| AGGTGCACGTGGTGGT | 0 |
| CTAGTCACGTGGGTTA | -0.12 |
| TGCCTCACGTGTGTGT | 0.17 |

| Sequence | relative binding free energy [kcal/mol] |
| --- | --- |
| GGTGACACGTGGCGGT | -0.17 |
| AAGGTCACGTGATATA | 0.15 |
| TTGGTCACGTGTTGCT | 0.13 |
| TGTTGCACGTGTTAAG | -0.02 |
| TGATTCACGTGTAGCG | 0.37 |
| GGGGACACGTGATACT | 0.35 |
| TTAAGCACGTGTGATG | -0.01 |
| CCTTGCACGTGTTGGT | 0.15 |
| CTTCTCACGTGAGGGT | 0.29 |
| TGGTGCACGTGTGAAG | 0.01 |
| GTGGGCACGTGCTTCG | -0.15 |
| GGGGTCACGTGCCATG | 0.04 |
| GTTCTCACGTGAGTGG | 0.38 |
| CGGTACACGTGTTATA | 0.06 |
| CTAGGCACGTGGGTAG | -0.44 |
| AATAGCACGTGTAATT | -0.08 |
| CAGGACACGTGTGGAT | 0.09 |
| AGGTTCACGTGGGCTT | 0.11 |
| GTTGACACGTGGTTGG | 0.03 |
| ACGTACACGTGAGGGG | 0.16 |
| GGTGCCACGTGCGGGG | -0.13 |
| TGGGGCACGTGGATGG | 0.03 |
| TGAGACACGTGTCTGT | -0.1 |

| Sequence | relative binding free energy [kcal/mol] |
| --- | --- |
| TGCAGCACGTGGTAGT | -0.29 |
| GTTATCACGTGGGCGT | 0.06 |
| GGTAACACGTGTGGTG | 0.14 |
| ACGTACACGTGTGTTA | 0.13 |
| ATGGGCACGTGGTCGA | -0.12 |
| TGATGCACGTGATCGG | 0.02 |
| TGGGGCACGTGAGGCA | 0.06 |
| ATGGGCACGTGACTGT | 0.03 |
| GTTTTCACGTGTCGGG | 0.32 |
| TATAGCACGTGTGGGT | -0.02 |
| GATTACACGTGGGTGG | 0.09 |
| TTCGGCACGTGCGCGG | -0.29 |
| ATATTCACGTGTAGCG | 0.16 |
| TACTTCACGTGTTAGT | 0.26 |
| TTTGGCACGTGTTTTT | -0.01 |
| GGCTTCACGTGTGATC | 0.4 |
| GTAAGCACGTGAGTCT | 0.18 |
| GTTGTCACGTGAAGTG | 0.24 |
| GAAGTCACGTGTGAAG | 0.24 |
| TGTTTCACGTGCATGT | 0.28 |
| AAGTTCACGTGTTACG | 0.43 |
| TTAAACACGTGCGTTT | 0.11 |
| GGTGACACGTGTGCTT | 0.18 |

| Sequence | relative binding free energy [kcal/mol] |
| --- | --- |
| GACGTCACGTGGTGTA | 0 |
| AGCTGCACGTGATAGT | 0.21 |
| GGGCGCACGTGATGGT | 0.13 |
| GTTATCACGTGTAGGG | 0.21 |
| AGTTTCACGTGGAACT | 0.38 |
| TTCATCACGTGGGGGA | 0.08 |
| CTTTCCACGTGGTGTT | -0.14 |
| TGGGACACGTGGGATC | -0.01 |
| TCAGTCACGTGATGGG | 0.16 |
| GGGCTCACGTGCGAGT | 0.29 |
| AATGGCACGTGGAGGG | -0.02 |
| ACGGGCACGTGAAAGT | 0.07 |
| TGCAGCACGTGTGGGA | -0.04 |
| TACCGCACGTGTTGGT | -0.07 |
| TATGGCACGTGGTACT | -0.17 |
| AACTGCACGTGGTGGT | -0.05 |
| AAGGGCACGTGATAGT | 0.01 |
| CGGTGCACGTGGTAGA | -0.19 |
| TGTGACACGTGTCTTG | 0 |
| TATTGCACGTGTATTG | -0.02 |
| GTATACACGTGCGTTG | 0.01 |
| GTGGCCACGTGCAAGG | -0.12 |
| AGCTACACGTGGGGAG | -0.06 |
